Assay results reported in publication PMC4336329 (PLoS ONE, 2015).
Out of some 310,000 compounds screened, about 14,000 (4.5%) showed an effect of 50% or more. The effect is printed as a negative number. Some of the results follow.

target: human ether-à-go-go-related gene (hERG) potassium channel (human, UniProt Q12809); experiment: primary screen, population patch clamp on CHO cells stably expressing hERG
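Also: peak tail current of the secondary pulse compared with the same well before compound.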

human ether-à-go-go-related gene (hERG) potassium channel, sequence (Q12809 whole entry, looked up): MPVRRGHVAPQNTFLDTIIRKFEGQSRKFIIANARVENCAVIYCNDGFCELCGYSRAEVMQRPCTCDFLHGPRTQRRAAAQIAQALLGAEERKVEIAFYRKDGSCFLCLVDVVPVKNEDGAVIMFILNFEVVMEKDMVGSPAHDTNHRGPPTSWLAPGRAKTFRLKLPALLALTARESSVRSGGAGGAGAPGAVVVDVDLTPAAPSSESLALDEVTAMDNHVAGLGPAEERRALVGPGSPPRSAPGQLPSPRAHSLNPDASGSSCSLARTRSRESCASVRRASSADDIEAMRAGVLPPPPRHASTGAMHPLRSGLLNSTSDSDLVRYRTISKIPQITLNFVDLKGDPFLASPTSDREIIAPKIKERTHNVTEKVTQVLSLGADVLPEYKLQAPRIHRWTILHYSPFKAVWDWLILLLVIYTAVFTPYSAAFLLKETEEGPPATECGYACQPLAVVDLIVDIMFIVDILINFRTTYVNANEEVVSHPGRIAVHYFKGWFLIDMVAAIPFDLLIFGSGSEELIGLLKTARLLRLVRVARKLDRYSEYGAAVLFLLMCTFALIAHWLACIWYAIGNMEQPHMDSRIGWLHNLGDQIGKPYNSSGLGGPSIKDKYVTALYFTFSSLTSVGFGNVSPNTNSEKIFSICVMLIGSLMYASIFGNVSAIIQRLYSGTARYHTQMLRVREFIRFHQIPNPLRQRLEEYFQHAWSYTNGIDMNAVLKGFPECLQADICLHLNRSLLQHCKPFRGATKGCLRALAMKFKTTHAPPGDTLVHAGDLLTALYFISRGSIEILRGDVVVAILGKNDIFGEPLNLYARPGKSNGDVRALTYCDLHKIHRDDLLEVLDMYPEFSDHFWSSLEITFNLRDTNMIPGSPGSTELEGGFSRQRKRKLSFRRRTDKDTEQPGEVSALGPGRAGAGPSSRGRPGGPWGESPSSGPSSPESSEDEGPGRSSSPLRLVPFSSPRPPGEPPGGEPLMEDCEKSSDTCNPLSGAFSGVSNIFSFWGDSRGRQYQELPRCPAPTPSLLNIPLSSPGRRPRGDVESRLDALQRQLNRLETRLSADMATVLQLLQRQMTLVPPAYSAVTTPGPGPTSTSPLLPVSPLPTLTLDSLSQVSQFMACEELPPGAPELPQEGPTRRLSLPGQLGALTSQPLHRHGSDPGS

**Q.** For `COCCNC(=O)c1ccccc1NC(=O)c1ccc(OC)c(OC)c1`, which “hERG current change (%, negative = inhibition) at 10uM” value is on record?
**A.** Its value is -18.9%.

**Q.** `Cc1ccc(S(=O)(=O)/N=C(/Nc2cccc(C(=O)O)c2)c2ccccc2)cc1` was tested. Which “hERG current change (%, negative = inhibition) at 10uM” value did it give?
**A.** Its value is 22.2%.

**Q.** How did the “hERG current change (%, negative = inhibition) at 10uM” value turn out when `CCOC(=O)N1CCN(c2nc(-c3ccc(OC)cc3)no2)CC1` was run?
**A.** The value was 5.03%.

**Q.** `COc1cc2c(C(=O)N3CCN(C)CC3)c(CSc3ccccc3)n(C)c2cc1Br` was tested. Which “hERG current change (%, negative = inhibition) at 10uM” value did it give?
**A.** The value was -74%.

**Q.** `Cc1ccc(S(=O)(=O)Nc2ccc(NC(=O)c3ccc(F)cc3)cc2)cc1` was tested. Which “hERG current change (%, negative = inhibition) at 10uM” value did it give?
**A.** The value was -42.7%.

**Q.** `COc1ccc([C@H]2CC(=O)C=C(/C=C/c3ccc(Cl)cc3)C2)cc1` was tested. Which “hERG current change (%, negative = inhibition) at 10uM” value did it give?
**A.** Its value is 12.8%.

**Q.** How did the “hERG current change (%, negative = inhibition) at 10uM” value turn out when `O=C(c1ccco1)N1CCN(C(=O)c2ccccc2OCc2ccc(Cl)cc2)CC1` was run?
**A.** Its value is -75.9%.

**Q.** Which “hERG current change (%, negative = inhibition) at 10uM” value does the source give for `CCCCN(C)C(=O)c1coc(=O)c2ccccc12` here?
**A.** Its value is 7.25%.

**Q.** With `Cc1ccc(F)cc1NC(=O)N1CCN(C2c3ccccc3-c3ccccc32)CC1` as the compound, how does the “hERG current change (%, negative = inhibition) at 10uM” value read?
**A.** Its value is 11%.

**Q.** With `CCOC(=O)C1CCN(CC(=O)c2ccc(O)c(C)c2O)CC1` as the compound, how does the “hERG current change (%, negative = inhibition) at 10uM” value read?
**A.** Its value is 7.78%.

**Q.** Which “hERG current change (%, negative = inhibition) at 10uM” value does the source give for `COC(=O)c1ccccc1NC(=O)CN(C)S(=O)(=O)c1ccc(OC)c(C)c1` here?
**A.** The value was -11.1%.

**Q.** Which “hERG current change (%, negative = inhibition) at 10uM” value does the source give for `COc1ccc(Cn2c(CCC(=O)Nc3ccccc3OC)nc3cccnc32)cc1` here?
**A.** Its value is -3.79%.

**Q.** `O=C1c2ccccc2C(=O)N1CCCn1ccnc1` was tested. Which “hERG current change (%, negative = inhibition) at 10uM” value did it give?
**A.** The value was 17.1%.

**Q.** Which “hERG current change (%, negative = inhibition) at 10uM” value does the source give for `CC1CCC(NC(=O)C(NS(=O)(=O)c2cccc3nsnc23)C(C)C)CC1` (stereo not drawn) here?
**A.** Its value is 2.06%.

**Q.** With `Cc1cc(N)ccc1-n1nc2ccccc2n1` as the compound, how does the “hERG current change (%, negative = inhibition) at 10uM” value read?
**A.** The value was -0.0513%.

**Q.** For `CN1C(C(=O)NCc2ccco2)CC2Cn3c(nc4ccccc43)C21` (stereo not drawn), which “hERG current change (%, negative = inhibition) at 10uM” value is on record?
**A.** The value was 10.3%.

**Q.** For `O=C(CSc1ncccn1)NNC(=O)c1ccccc1`, which “hERG current change (%, negative = inhibition) at 10uM” value is on record?
**A.** The value was -4.48%.

**Q.** `CCCCOC(=O)c1ccc(S(N)(=O)=O)o1` was tested. Which “hERG current change (%, negative = inhibition) at 10uM” value did it give?
**A.** The value was -1.6%.

**Q.** Which “hERG current change (%, negative = inhibition) at 10uM” value does the source give for `CN(Cc1cc([N+](=O)[O-])c2cccnc2c1O)C1CCCCC1` here?
**A.** Its value is 19.3%.

**Q.** How did the “hERG current change (%, negative = inhibition) at 10uM” value turn out when `COc1ccc(CNCC(O)(c2ccc(Cl)cc2)c2ccc(Cl)cc2)cc1OC` was run?
**A.** The value was -30.9%.

**Q.** With `O=C(c1cc(C2CC2)nn1-c1ccccc1)N1CCN(S(=O)(=O)c2c(F)cccc2F)CC1` as the compound, how does the “hERG current change (%, negative = inhibition) at 10uM” value read?
**A.** Its value is -9.33%.

**Q.** How did the “hERG current change (%, negative = inhibition) at 10uM” value turn out when `O=C(Nc1ccc(F)cc1)NC1CCN(Cc2nnnn2Cc2ccco2)CC1` was run?
**A.** The value was -42.6%.

**Q.** `CCOc1ccc(-c2noc(CCCC(N)=O)n2)cc1OC` was tested. Which “hERG current change (%, negative = inhibition) at 10uM” value did it give?
**A.** The value was 3.53%.

**Q.** `CCOc1ccc(N2C(=O)/C(=C/c3cc(OC)c(OC)c(OC)c3)N(CC(=O)OC)C2=S)cc1` was tested. Which “hERG current change (%, negative = inhibition) at 10uM” value did it give?
**A.** Its value is 2.58%.

**Q.** How did the “hERG current change (%, negative = inhibition) at 10uM” value turn out when `CCOc1cc(C#N)c(NC(=O)c2cccnc2Cl)cc1OCC` was run?
**A.** Its value is 3.49%.

**Q.** With `O=C(Nc1ccccc1Cl)Oc1ccc2ccccc2c1` as the compound, how does the “hERG current change (%, negative = inhibition) at 10uM” value read?
**A.** The value was 8%.

**Q.** With `O=S(=O)(c1ccc(F)cc1)N1CCCC(CO)C1` (stereo not drawn) as the compound, how does the “hERG current change (%, negative = inhibition) at 10uM” value read?
**A.** Its value is -0.739%.

**Q.** For `CCn1c(SCC(=O)Nc2ccccc2)nc2ccccc2c1=O`, which “hERG current change (%, negative = inhibition) at 10uM” value is on record?
**A.** The value was 12.8%.

**Q.** For `C=CCSc1nnc(Cc2cc(=O)[nH]c(=O)[nH]2)n1-c1cc(C)ccc1C`, which “hERG current change (%, negative = inhibition) at 10uM” value is on record?
**A.** Its value is 6.26%.

**Q.** How did the “hERG current change (%, negative = inhibition) at 10uM” value turn out when `CC(C)NC(=O)CN1C(=O)C(=O)c2ccccc21` was run?
**A.** The value was -9.78%.

**Q.** With `Fc1ccc(OCCCn2ccnc2)cc1` as the compound, how does the “hERG current change (%, negative = inhibition) at 10uM” value read?
**A.** The value was 26.7%.

**Q.** How did the “hERG current change (%, negative = inhibition) at 10uM” value turn out when `CN(C)c1ccc(NC(=O)c2ccc3c(c2)nnn3C)cc1` was run?
**A.** Its value is 17.1%.

**Q.** For `CCN1CCCC1CNC(=O)c1cc2c(=O)n(C)c3ccccc3c2n1C` (stereo not drawn), which “hERG current change (%, negative = inhibition) at 10uM” value is on record?
**A.** The value was -18.5%.

**Q.** For `CCCNc1c(NS(=O)(=O)c2ccc(C3CCCCC3)cc2)c(=O)oc2ccccc12`, which “hERG current change (%, negative = inhibition) at 10uM” value is on record?
**A.** Its value is 21.9%.

**Q.** `CC(=O)c1c(COC(=O)c2ccncc2)nc2ccccc2[n+]1[O-]` was tested. Which “hERG current change (%, negative = inhibition) at 10uM” value did it give?
**A.** Its value is 0.834%.

**Q.** How did the “hERG current change (%, negative = inhibition) at 10uM” value turn out when `Cc1nnc(SCC(=O)Nc2ncc(S(=O)(=O)c3ccc([N+](=O)[O-])cc3)s2)s1` was run?
**A.** The value was 0.397%.

**Q.** How did the “hERG current change (%, negative = inhibition) at 10uM” value turn out when `COc1ccc(C)cc1NC(=O)CSc1nc2ccccc2nc1N1CC(C)OC(C)C1` (stereo not drawn) was run?
**A.** Its value is 23.9%.

**Q.** With `CCN(CC)C(=O)Cn1cc(S(=O)(=O)CC(=O)NC2CCCCC2)c2ccccc21` as the compound, how does the “hERG current change (%, negative = inhibition) at 10uM” value read?
**A.** Its value is -4.65%.

**Q.** For `COC(=O)CNC(=O)c1ccc(NS(=O)(=O)c2cc([N+](=O)[O-])ccc2Cl)cc1`, which “hERG current change (%, negative = inhibition) at 10uM” value is on record?
**A.** Its value is 8.77%.

**Q.** With `CS/C(=N\S(=O)(=O)c1ccc(N)cc1)NS(=O)(=O)c1cccs1` as the compound, how does the “hERG current change (%, negative = inhibition) at 10uM” value read?
**A.** Its value is 2.07%.

**Q.** How did the “hERG current change (%, negative = inhibition) at 10uM” value turn out when `CC1=CC(=C(C#N)C#N)C=C(C)N1Cc1ccc(Cl)cc1` was run?
**A.** The value was 5.27%.

**Q.** How did the “hERG current change (%, negative = inhibition) at 10uM” value turn out when `CC(=O)c1cc(-c2ccccc2)n(CCC(=O)NCc2cccs2)c1C` was run?
**A.** The value was -13.5%.

**Q.** How did the “hERG current change (%, negative = inhibition) at 10uM” value turn out when `CN(c1ccc(OCC(=O)N2CCCCC2)cc1)S(=O)(=O)c1cccs1` was run?
**A.** Its value is -11.2%.

**Q.** `Cc1cc(C)c[n+](C2=C([O-])c3ccccc3C(=O)/C2=N\S(=O)(=O)c2cccs2)c1` was tested. Which “hERG current change (%, negative = inhibition) at 10uM” value did it give?
**A.** Its value is -5.34%.

**Q.** `CN(C)C(=O)Oc1ccc([N+](=O)[O-])cc1` was tested. Which “hERG current change (%, negative = inhibition) at 10uM” value did it give?
**A.** The value was 18.1%.
